According to PubChem BioAssay AID488969 (Vanderbilt High Throughput Screening Facility, 2010):
In all, about 110,000 compounds were measured (“z-score”: median about -0.1, highest 2% from about 2 on). Some of the results follow. Activity calls are given as the source filed them.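 How the source made its calls: active means z-score in the third read window above 3 or below -3; inactive means the rest.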

biological target: Metabotropic glutamate receptor 8 (Rattus norvegicus) (UniProt P70579); assay: mGluR8 Gi/Go-coupled signaling modulation – cell-based, rat, thallium flux, HTS, primary screen (AID 488969); settings: HEK293 rat mGluR8, GIRK (G protein-gated inwardly rectifying potassium channel) thallium flux, FluoZin2; at 10 µM; stronger effect = higher value; submaximal glutamate (EC20) added with thallium
UniProt P70579, sequence (P70579 whole entry, looked up): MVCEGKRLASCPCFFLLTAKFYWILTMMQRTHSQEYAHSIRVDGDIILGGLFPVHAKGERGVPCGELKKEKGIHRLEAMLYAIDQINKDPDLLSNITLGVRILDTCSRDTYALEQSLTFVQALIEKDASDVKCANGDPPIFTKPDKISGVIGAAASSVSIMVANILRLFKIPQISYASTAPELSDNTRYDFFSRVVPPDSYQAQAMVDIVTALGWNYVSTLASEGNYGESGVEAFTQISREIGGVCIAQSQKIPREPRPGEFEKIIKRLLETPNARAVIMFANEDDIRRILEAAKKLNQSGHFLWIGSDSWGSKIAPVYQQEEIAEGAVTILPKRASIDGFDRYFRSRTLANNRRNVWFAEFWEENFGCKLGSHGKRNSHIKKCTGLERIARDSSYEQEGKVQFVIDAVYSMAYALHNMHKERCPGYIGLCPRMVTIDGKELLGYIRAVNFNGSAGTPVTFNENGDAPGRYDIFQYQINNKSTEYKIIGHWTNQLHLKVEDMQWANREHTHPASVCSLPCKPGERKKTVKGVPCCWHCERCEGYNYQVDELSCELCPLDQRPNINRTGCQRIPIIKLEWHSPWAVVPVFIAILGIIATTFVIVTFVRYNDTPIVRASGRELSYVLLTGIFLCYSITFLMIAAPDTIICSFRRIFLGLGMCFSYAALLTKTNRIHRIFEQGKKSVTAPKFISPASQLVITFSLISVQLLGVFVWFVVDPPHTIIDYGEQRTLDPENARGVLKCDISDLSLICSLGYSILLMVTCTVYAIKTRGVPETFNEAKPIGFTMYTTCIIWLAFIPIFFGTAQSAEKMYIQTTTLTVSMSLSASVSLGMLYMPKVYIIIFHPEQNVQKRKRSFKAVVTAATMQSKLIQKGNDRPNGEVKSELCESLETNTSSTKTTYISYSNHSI

| Compound | z-score |
| --- | --- |
| CCOc1ccc(C(=O)N(Cc2ccc(OC)cc2)Cc2cc3cc(OC)ccc3[nH]c2=O)cc1 | 0.111 |
| COc1cc2c(cc1OC)C(C(=O)Nc1ccc3c(c1)OCCO3)C(c1cccnc1)N(C)C2=O (configuration not stated) | 0.449 |
| Cc1ccccc1Cn1ccc(-c2ccc3c(c2)OCO3)n1 | -0.221 |
| Cc1ccnc(NC(=O)C23CC4CC(CC(C4)C2)C3)c1 | -0.108 |
| COc1ccc(NC(=O)OC(C)C)cc1 | -0.841 |
| COc1cccc(C(=O)Nc2cccc(-c3nc4ncccc4o3)c2C)c1 | -0.228 |
| CCN(CC)S(=O)(=O)c1ccc(NS(=O)(=O)c2ccc(C)c(C)c2)cc1 | 0.0866 |
| CC(=O)N(/N=C1\Sc2ccccc2C1=O)c1ccccc1 | -0.388 |
| O=C(c1cccnc1)N1CCN(c2ccc([N+](=O)[O-])cc2Cl)CC1 | 0.396 |
| CC1(C)CC(=O)c2cn3ncnc3nc2C1 | -0.217 |
| Cc1ccc2c(CC(=O)NCc3ccco3)coc2c1C | 0.19 |
| CCCCCCCCCn1c2c(c(=N)c3c1CCC3)CCC2 | active: 4.64 |
| O=C(Cn1c(SCC(=O)N2CCc3ccccc32)nc2ccccc21)NC1CCCC1 | 0.988 |
| O=S(=O)(NCCC1=CCCCC1)c1cccc2nsnc12 | -0.683 |
| O=C(c1nc(-c2ccccc2)n(-c2ccccc2)n1)N1CCCCCC1 | 0.217 |
| CC1(C)CC(=O)C2=C(C1)c1c(ccc3ccccc13)NC2c1ccc(Br)o1 (configuration not stated) | -0.249 |
| CCC(=O)Oc1ccc2ccccc2c1CNC(=O)c1ccccc1 | -1.26 |
| CCOC(=O)c1ccc(S(=O)(=O)N2CCN(S(=O)(=O)CC)CC2)cc1 | -0.0124 |
| CCN1CCc2c(C#N)c(N3CCOCC3)nc(NCCO)c2C1 | -0.118 |
| CC(N=Cc1ccccc1O)c1ccccc1 (configuration not stated) | -0.206 |
| COc1ccc2nc(/C(C#N)=C\c3ccc(Oc4ccc([N+](=O)[O-])cn4)cc3)[nH]c2c1 | -0.3 |
| CCn1ncc(Cl)c1C(=O)Nc1cc(Cl)ccc1Cl | 0.0474 |
| Cc1ccc(C(=O)Nc2ccccc2C(=O)NC(C(=O)O)C(C)C)cc1 (configuration not stated) | -0.939 |
| Cc1ccc(/C(N)=N/OC(=O)N2c3ccccc3Sc3ccccc32)cc1 | 0.0341 |

| Compound | z-score |
| --- | --- |
| OC1(c2cccc(C(F)(F)F)c2)CCN(c2ncnc3c2[nH]c2ccccc23)CC1 | 0.406 |
| COCCCNC(=O)Cn1nnc(-c2ccccc2NC(=O)c2ccc(F)cc2)n1 | 1.89 |
| CCn1c(=O)c([N+](=O)[O-])c(N2CCOCC2)c2ccccc21 | -0.199 |
| CCCOc1ccc(C(=O)Nc2nc(C)c(Cc3ccc4c(c3)OCO4)s2)cc1 | -1.11 |
| CCCN1Cc2cccc(C(=O)Nc3ccc(S(=O)(=O)N4CCCCCC4)cc3)c2C1=O | -0.212 |
| CC(C)CC(=O)N1CCN(CC2CC=CCC2)CC1 (configuration not stated) | 0.476 |
| O=C(Nc1ccc(F)cc1F)c1ccccc1-c1ccccc1 | -0.0645 |
| CONC(=O)c1cc(OCC(F)(F)F)ccc1OCC(F)(F)F | 0.0114 |
| COCCCNC(=O)c1nc2c(nnn2Cc2cc(C)ccc2C)c(=O)[nH]1 | -0.145 |
| Cc1sc2nc(C(C)(C)C)oc(=O)c2c1C | -0.0397 |
| Brc1ccc(Oc2ncc(CN3CCOCC3)s2)cc1 | -0.109 |
| CCCCCSc1nnc(-c2cc(Br)ccc2N)c(=O)[nH]1 | -0.152 |
| CCc1cccc(NC(=O)CCC(=O)O)c1 | -0.104 |
| O=C(Cn1c(=O)sc2ccccc21)Nc1ccc(S(=O)(=O)N2CCCCC2)cc1 | -0.11 |
| Cc1ccc(NC(=O)Nc2ccccc2C#N)c(Cl)c1 | -0.0673 |
| COc1ccc(S(=O)(=O)N(C)CC(=O)Nc2cccc(C(C)=O)c2)cc1Cl | -0.0605 |
| COc1ccccc1C(=O)Nc1nnc(-c2ccc3c(c2)CCCC3)o1 | -0.536 |
| Cc1ccc(CNC(=O)CCNC(=O)c2ccco2)cc1 | 0.0138 |
| O=S(=O)(NCC1OCCc2ccccc21)c1ccccc1 (configuration not stated) | -0.014 |
| O=C(NC1CC1)C1CCN(Cc2cnn(-c3ccccc3)c2-n2cccc2)CC1 | 0.0858 |
| O=S(=O)(NCC(Nc1ccc(Cl)cc1)c1ccccc1)c1ccccc1 (configuration not stated) | -0.268 |
| O=C(N1CCCCC1)N1CCN(C(=O)N(c2ccccc2)c2ccccc2)CC1 | active: 3.16 |
| COc1cc(NC(=O)Nc2ccccc2)c(OC)cc1NC(=O)CN1CCCCC1 | -0.428 |
| COC(=O)c1c(-c2ccccc2)csc1NC(=O)CSc1ncnc2sc(C)c(C)c12 | -0.0554 |

| Compound | z-score |
| --- | --- |
| COC(=O)c1cccc(-n2cnnn2)c1 | -0.171 |
| COCCNC(=O)c1c[nH]c2ccc(OC)cc2c1=O | 0.733 |
| CC(C)Cn1c(-c2cc([N+](=O)[O-])ccc2Cl)nc2c1c(=O)[nH]c(=O)n2Cc1ccccc1 | -0.213 |
| CCOC(=O)C1(P(=O)(c2ccc(Cl)cc2)c2ccc(Cl)cc2)CCC1 | 0.0882 |
| COC(=O)c1ccc(CSc2nc3ccc(C)cc3[nH]2)o1 | -0.48 |
| CC(=O)c1cnc(N(C)C)s1 | 0.141 |
| C=CCNC(=O)c1nc2ccccc2s1 | 0.436 |
| O=C(c1ccccc1)c1cnc(Nc2ccccc2Cl)s1 | -0.0732 |
| O=C(CSc1nnc(-c2ccccc2Cl)o1)Nc1ccc2c(c1)OCCO2 | -0.339 |
| COc1ccc(OC)c(NC2c3ccccc3C(=O)N2c2cccnc2)c1 (configuration not stated) | -0.227 |
| CCN(CC)c1ccc(/C=C/C(=O)c2ccc(Br)cc2)cc1 | -0.604 |
| CC(C)(C)C(=O)Nc1cc(C(F)(F)F)ccc1N1CCOCC1 | -0.137 |
| CCCCCCSc1nsc(NC(C)=O)n1 | -0.485 |
| CCc1ccc(-c2cc(C(=O)N3N=C(C(F)F)CC3(O)C(F)F)c3ccccc3n2)cc1 (configuration not stated) | -0.151 |
| Cc1ccc(/C=C/C(=O)N2CCc3ccccc3C2)cc1 | -0.018 |
| CCN(CC)CCNC(=O)c1ccc(Cl)c(S(=O)(=O)N2CCCCCC2)c1 | 1.85 |
| CCOC(=O)N1CCC(NC(=O)CCC(=O)N2CC(C)Oc3ccc(Cl)cc32)CC1 (configuration not stated) | -0.627 |
| COCCSc1nnc(-c2cccc(C#N)c2)n1C | 2.31 |
| CN(C)c1ncnc2c1NC1=C(S2)C(=NCCCC(=O)O)CC(C)(C)C1 | -0.245 |
| O=C(O)CCn1c(SCc2cccc3ccccc23)nc2ccccc21 | 2.1 |
| CCCCn1c(N)c(C(=S)NC(=O)CC(C)(C)C)c(=O)n(C)c1=O | active: 9.54 |
| C=CCSc1nn2c(=O)c3ccccc3nc2s1 | -0.0919 |
| Cc1cc2cc3c(cc2nc1SCC(=O)N1CCN(C(=O)c2ccco2)CC1)OCO3 | active: -3.74 |
| CC1CCCCN1S(=O)(=O)c1coc(C(N)=O)c1 (configuration not stated) | 0.0539 |
